In all, about 330,000 compounds went through this assay and about 560 (0.17%) were called active. The shares of active, inactive and inconclusive entries below differ from those in the screen. Calls come from the whole dose curve; as a rule, active = well fitted inhibition curve with a large enough effect; inconclusive = small, poorly fitted or top-dose-only effect, or effect the other way; inactive = flat fitted curve, though single readings scatter. Potencies of inconclusive entries are left out as doubtful fits.
Target: ATP-dependent 6-phosphofructokinase (Trypanosoma brucei brucei) (UniProt O15648)
Sequence of UniProt O15648 (O15648 whole entry, looked up): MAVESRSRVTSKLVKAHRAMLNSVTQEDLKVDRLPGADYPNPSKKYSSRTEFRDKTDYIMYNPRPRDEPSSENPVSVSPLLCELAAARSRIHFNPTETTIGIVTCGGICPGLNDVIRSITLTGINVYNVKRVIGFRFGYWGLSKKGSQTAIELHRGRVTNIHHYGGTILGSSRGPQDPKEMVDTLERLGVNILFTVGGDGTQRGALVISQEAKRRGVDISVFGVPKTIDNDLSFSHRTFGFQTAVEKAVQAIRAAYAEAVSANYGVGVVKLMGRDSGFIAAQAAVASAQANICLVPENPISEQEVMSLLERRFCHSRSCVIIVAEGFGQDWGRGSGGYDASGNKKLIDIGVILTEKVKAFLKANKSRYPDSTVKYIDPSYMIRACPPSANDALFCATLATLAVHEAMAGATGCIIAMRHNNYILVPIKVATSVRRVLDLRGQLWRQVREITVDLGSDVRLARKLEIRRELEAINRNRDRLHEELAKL
Experiment: qHTS Assay to Find Inhibitors of T. brucei phosphofructokinase; note: nearly all actives have a fitted effect of over 60% in size
Settings: T. brucei PFK, ADP-Glo luminescence; series mostly up to 57.5 µM
Text: NIH Molecular Libraries Probe Production Network [MLPCN] NIH Chemical Genomics Center [NCGC] Grant: 1 R03 MH092153-01 PI Name: Malcolm Walkinshaw, University of Edinburgh NCGC Assay Overview: Various species of the protozoan family Trypanosomatidae are responsible for a range of serious human diseases in tropical and subtropical areas of the world. […] Many of the disorders caused by trypanosomatids are fatal if left untreated, but most currently used drugs are inefficient and toxic. […] Oxidative metabolism involving the mitochondrial tricarboxylic acid cycle and oxidative phosphorylation are repressed in these parasites, and recent RNA interference (RNAi) experiments have shown that even partial depletion of certain individual glycolytic enzymes can lead to the death of cultured parasites. One such glycolytic enzyme, phosphofructokinase (PFK), catalyzes the formation of fructose-1,6-bisphosphate (F1,6BP) and ADP from fructose-6-phosphate (F6P) and ATP, and in many metabolic circumstances makes an important contribution to the control of flux through the glycolytic pathway. As a specific glycolytic target, PFK is particularly attractive as it catalyzes the first irreversible step in glycolysis, and structural and kinetic studies have shown very substantial and essential differences from corresponding host enzymes, allowing for the discovery of parasite-selective inhibitors. The goal of this screen is to find small-molecule inhibitors of T. brucei PFK using a biochemical assay that measures PFK activity as a function of ADP production. A luminescence-based assay for T. brucei PFK activity has been developed which uses luciferase to detect production of ADP. Traditional luciferase-based nucleotide detection reagents rely on ATP production as a direct substrate for the luciferase reaction; however, PFK catalyzes the transfer of a phosphate from ATP to F6P, resulting in the net depletion of ATP. To directly measure the ADP product of the PFK reaction, we used the ADP-Glo detection kit (Promega), which utilizes two separate reactions to 1) deplete all remaining uncatalyzed ATP and 2) convert all remaining ADP to ATP, which is then detected through a traditional luciferase-coupled reaction. Compounds were screened as a concentration-titration series that ranged from 57 uM to 0.7 nM.
NCGC Assay Protocol Summary: NCGC Assay Protocol Summary: Substrate buffer was dispensed into white, solid 1536-well plates at 3uL/well in 0.1M triethanolamine (TEA) buffer, pH 8.0, containing final concentrations of 5 mM MgCl2, 0.01% Tween20, 0.5 mM fructose-6-phosphate (F6P) and 0.1mM ATP. Then, 23 nL of compounds or DMSO were delivered to each well using a pin tool. One uL T. brucei PFK (0.1M TEA, 0.01% Tween20, 0.1% bovine serum albumin (BSA) and 1.25nM PFK, final concentrations) was then dispensed, and plates were incubated at room temperature for 45 min. The luminescent detection reagent, ADP-Glo (Promega), was then added in two steps: the first reagent, ADP-Glo (which converts remaining uncatalyzed ATP), was added at 2.5uL/well and incubated for ten minutes at room temperature, and the second component, Kinase Detection reagent (which converts ADP to ATP as a substrate for luciferase-based luminescence), was added immediately after at 5uL/well, followed by one final ten minute room temperature incubation. The plates were measured on a ViewLux plate reader for luminescent signal using a clear filter with a one second exposure. The %Activity was determined from the corrected luminescence values. As no specific T. brucei PFK inhibitors have been identified in the literature, 1x (1.25nM) and 0x PFK enzyme controls (untreated) were included to normalize %Activity of identified inhibitors; 0x enzyme values corresponded to 100%Activity (full inhibition), while 1x PFK enzyme values were used to normalize 0%Activity (no inhibition). Concentration-response curves were fitted to the signals arising from the resulting luminescence. […]
Potency is the fitted concentration of half-maximal effect; tags give direction and shape of the fitted curve.

| Compound | Potency |
| --- | --- |
| N=c1n(CCCOc2ccc(F)cc2)c2ccccc2n1CC(N)=O | inactive |
| COc1ccc(C(=O)COC(=O)/C=C/c2ccccc2)c(OC)c1 | inconclusive [falling, full curve] |
| Clc1ccc(C2=NNC(=NCC3CCCO3)SC2)cc1 (stereo unspecified) | inconclusive [activator, single point] |
| O=C(Nc1nnc(COc2ccc(Cl)cc2)s1)c1ccco1 | inconclusive [falling, partial curve] |
| Cc1cc(OCC(=O)Nc2cccc(S(=O)(=O)NC3=NCCCCC3)c2)ccc1Cl | inconclusive [falling, single point] |
| O=C(/C(=N/N=C/c1ccc(O)c(O)c1O)c1ccccc1)c1ccccc1 | inactive |
| Cc1ccc(S(=O)(=O)c2cc3c(=O)n4ccccc4nc3n(C3CCCCC3)c2=N)cc1 | inactive |
| COc1ccc(OC)c(NC(=O)Cc2cccs2)c1 | inconclusive [falling, single point] |
| O=Cc1c(Nc2ccccc2Cl)nc2ccccn2c1=O | inconclusive [falling, single point] |
| Cc1ccc(NC(=O)N/C=C/c2ccco2)cc1 | inconclusive [falling, single point] |
| Cn1nc2sc3ccccc3n2c(=O)c1=O | inactive |
| CN(CC(=O)NC(=O)NC1CCCCC1)CC(=O)Nc1ccc(Cl)cc1 | inconclusive [activator, full curve, poor fit] |
| O=[N+]([O-])c1ccc(N/N=C/c2ccc(O)c(O)c2O)c(S(=O)(=O)N2CCOCC2)c1 | inconclusive [falling, partial curve] |
| Cc1ccc(S(=O)(=O)Nc2ccc(=O)n(Cc3ccc(Cl)c(Cl)c3)c2)cc1 | inconclusive [falling, single point] |
| NC(=O)c1ccc(SCC(=O)OCC(=O)N2CCN(C(=O)c3ccco3)CC2)c([N+](=O)[O-])c1 | inconclusive [falling, single point] |
| COc1cccc(-c2cc(C(=O)Nc3ccc([N+](=O)[O-])cn3)c3ccccc3n2)c1 | inconclusive [falling, single point] |
| O=C(CCc1nnc2ccc(NCc3ccco3)nn12)Nc1ccccn1 | inconclusive [falling, single point] |
| O=C(Nc1nccs1)C1CCN(S(=O)(=O)c2c(Cl)cccc2Cl)CC1 | inconclusive [falling, single point] |
| O=C(CN1CCCCCCC1)N/N=C/c1ccc([N+](=O)[O-])o1 | inconclusive [falling, single point] |
| Cc1ccccc1-n1sc2cc(F)ccc2c1=O | active: 2.69 µM |
| CCCCNC(=O)C(CC)(ONc1ccccc1C(F)(F)F)c1ccccc1OC (stereo unspecified) | inconclusive [falling, single point] |
| O=C(N/N=C\C=C\c1ccc2c(c1)OCO2)C1COc2ccccc2O1 (stereo unspecified) | active: 26.9 µM |
| COC(=O)C1CCN(C(=O)c2cc(-c3ccco3)nc3ccccc23)CC1 | active: 2.69 µM |
| COc1ccc(N2Cc3cccc(C(=O)NC(C)CCc4ccco4)c3C2=O)cc1 (stereo unspecified) | inconclusive [falling, full curve] |

| Compound | Potency |
| --- | --- |
| CCOc1ccc(S(=O)(=O)N2CCCCC2)cc1NC(=O)Cc1cccs1 | inconclusive [falling, single point] |
| CCOC(=O)c1ccc(NC(=O)CSc2nc3ncccc3[nH]2)cc1 | inconclusive [falling, single point] |
| COc1ccc(CC2(CO)CCN(Cc3cc4ccccc4o3)CC2)cc1 | inactive |
| COc1ccc(C(C)=O)cc1COc1ccc([N+](=O)[O-])c(C)c1 | inconclusive [activator, single point] |
| CSc1nsc(SCC(=O)Nc2ccc(F)cc2)n1 | inactive |
| CC(C(=O)Nc1ccc(C(=O)O)c(O)c1)N1C(=O)/C(=C\c2ccco2)SC1=S (stereo unspecified) | inconclusive [falling, single point] |
| Cc1cc(N=Nc2ccc(C)c(N=Nc3cc(C)c(N)cc3N)c2)c(N)cc1N | inconclusive [activator, single point] |
| COc1cc(/C=C2/C(=O)c3cccc([N+](=O)[O-])c3C2=O)c(Br)cc1O | inconclusive [activator, single point] |
| COc1cccc2c1NC(C(=O)O)C1CC=CC21 (stereo unspecified) | inconclusive [falling, partial curve] |
| Cc1noc(C)c1C(=O)NCc1cccs1 | inconclusive [falling, partial curve] |
| Clc1cccc(OCCn2ccnc2)c1 | active: 26.9 µM |
| Cc1ccc(/C=C2\Sc3ccccc3C2=O)s1 | inactive |
| Cc1ccc(/C=C/c2nc3ccccc3[nH]2)o1 | inactive |
| Cc1ccc(/C=N/N2C(=O)c3ccccc3NC2c2ccc(C)cc2)cc1 (stereo unspecified) | inactive |
| N=c1n(CCOc2ccccc2)c2ccccc2n1CCN1CCOCC1 | inconclusive [falling, single point] |
| COc1cc(-c2c(NC(=O)c3ccco3)oc3ccccc3c2=O)cc(OC)c1OC | inconclusive [falling, single point] |
| CC(C)c1ccc(S(=O)(=O)N2CCN(CC(=O)c3ccc(O)c(O)c3)CC2)cc1 | inconclusive [falling, single point] |
| O=C(NCc1ccco1)c1cc2c(s1)CSC2 | inconclusive [falling, single point] |
| CSc1ccc(Cl)c(C(=O)OCC(=O)NCc2ccco2)c1 | inconclusive [falling, single point] |
| COC(=O)c1ccc(CN2CCc3ccccc32)cc1 | inconclusive [falling, single point] |
| Cc1ccc(S(=O)(=O)N/N=C\C=C\c2ccccc2)cc1 | inconclusive [activator, full curve, poor fit] |
| COc1cccc2c(=O)c3cccc(N)c3[nH]c12 | inconclusive [activator, single point] |
| Cc1oc(C)c2c(=O)ccc3c(c12)OC(N)=C(C#N)C3c1ccc(F)cc1 (stereo unspecified) | inconclusive [falling, single point] |
| O=C(Cc1cccs1)Nc1ccc(S(=O)(=O)N2CCCCC2)cc1 | inconclusive [falling, single point] |

| Compound | Potency |
| --- | --- |
| N#Cc1nc(COc2ccccc2Cl)oc1NCc1cccnc1 | inconclusive [falling, single point] |
| CCOC(=O)c1ccc(Cn2c(-c3ccccc3)nnc2-c2ccccc2)o1 | inconclusive [falling, single point] |
| Cc1cc(C)c2c(=O)n(CC(=O)N3CCC(Cc4ccccc4)CC3)sc2n1 | inconclusive [falling, full curve] |
| Fc1cccc(NCc2ccoc2)c1 | inconclusive [falling, partial curve] |
| CC(C)C[C@H]1CN=C(Nc2ccccc2)N1CC1CCC(C(C)(C)C)CC1 (stereo partly specified) | inactive |
| Cc1nc2nc(CCNS(=O)(=O)c3ccc(Cl)cc3)cn2nc1C | inactive |
| O=[N+]([O-])/C=C/c1ccc2c(ccn2Cc2ccccc2)c1 | inconclusive [falling, partial curve] |
| COc1ccc(-c2ccc(SCC(=O)N3CC(=O)Nc4ccccc43)nn2)cc1 | inactive |
| Cc1c(CBr)[n+](=O)c2c(n1[O-])C(Br)CCC2Br (stereo unspecified) | inconclusive [falling, partial curve] |
| O=C(Nc1ncc(Cc2cccc(Cl)c2)s1)C1CCCO1 (stereo unspecified) | inconclusive [falling, partial curve] |
| Cc1cccc(NC(=O)CN2CCN(C(=O)c3ccc(OCc4cn5ccccc5n4)cc3)CC2)c1C | inconclusive [falling, single point] |
| Clc1ccc(-c2c[n+](Cc3ccc(Cl)c(Cl)c3)c3n2CCC3)cc1 | active: 12 µM |
| COc1ccc(OC)c(CCNC(=O)Cn2sc3nc(C)cc(C)c3c2=O)c1 | active: 2.39 µM |
| CCCN(Cc1nnc(-c2ccccc2Cl)o1)C(=O)c1cccc(S(=O)(=O)N2CCOCC2)c1 | inactive |
| O=C(NCc1ccncc1)c1cncc(Br)c1 | inconclusive [falling, single point] |
| CN1CCc2nc(SCC(=O)Nc3ccc(OC(F)(F)F)cc3)c(C#N)c(-c3cccs3)c2C1 | inconclusive [falling, partial curve] |
| CC1CN(Cc2c(O)ccc3c(=O)c(-c4ccccc4)coc23)CC(C)O1 (stereo unspecified) | inactive |
| CCOC(=O)c1c(/N=C/c2ccc(OC)cc2O)sc2c1CCN(C)C2 | inactive |
| COc1cc(OC)cc(C(=O)NCCCCCCNC(=O)c2cc(OC)cc(OC)c2)c1 | inconclusive [falling, single point] |
| O=S(=O)(c1ccc2nc(Cc3cccc(C(F)(F)F)c3)[nH]c2c1)N1CCOCC1 | inconclusive [falling, single point] |
| O=C(O)C1=C(C(=O)Nc2ccc(F)c(Cl)c2)CCCC1 | inconclusive [falling, single point] |
| CCOc1cc(C2C(C#N)=C(N)Oc3n[nH]c(-c4ccncc4)c32)cc([N+](=O)[O-])c1O (stereo unspecified) | inconclusive [activator, single point] |
| O=C(Nc1ccncc1)c1ccc(Cl)c([N+](=O)[O-])c1 | active: 26.9 µM |
